# Results as given in PubChem BioAssay AID1347417 (National Center for Advancing Translational Sciences (NCATS), 2020).
# About 5,300 (4.4%) of roughly 120,000 compounds were called active. The inconclusive results got no clear call from the source; some entries with a clear call stand among them for comparison. Calls follow the shape of the dose curve; as a rule, active = well fitted inhibition curve with a large enough effect; inconclusive = small, poorly fitted or top-dose-only effect; inactive = no such curve, though single readings can be large or run the other way. Where the call is inconclusive, the potency comes from a doubtful curve fit.
# Assay: qHTS Primary assay for Inhibitors of Plasmodium falciparum Dd2 growth in vitro; also: nearly all actives have a fitted effect of over 65% in size;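 as to activity, negative = inhibition: plate controls were DMSO vehicle for no effect and reference drug for full effect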
# Details: P. falciparum Dd2 growth, SYBR Green, 72 h; activity, negative = inhibition: at 28.9 µM (top of the series) unless noted; series mostly up to 28.9 µM
# Procedure, shortened: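 Infected erythrocytes (Dd2, 0.3% parasitemia, 2.5% hematocrit final) are added to compound in RPMI-1640/Albumax II medium, grown 72 h at 37C in low oxygen, then lysed with saponin/Triton-X containing SYBR Green and read by fluorescence.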
# Potency is read from the fitted curve at half-maximal effect; tags tell the direction and shape of the fitted curve.
SMILES,Potency,"activity, negative = inhibition",outcome
COc1ccc(-c2cccc(NS(=O)(=O)c3cc(C)ccc3OC)c2)nn1,"inconclusive: 11.2 µM [inhibitor, single point]",,
Cc1cccc(NC(=O)c2c(N)sc3c2CCC(C)C3)c1 (configuration not stated),"inconclusive: 10 µM [inhibitor, single point]",,
O=C(NCCc1ccccn1)C1CCc2sc(C(=O)N3CCCCC3)cc2C1 (configuration not stated),"inconclusive: 8.91 µM [inhibitor, partial curve]",,
Cc1noc(C2CCCCN2C(=O)c2ccc(-c3ccccc3Cl)o2)n1 (configuration not stated),,inactive: -19.5%,
Cc1cccc(NC(=O)N2CCC(CCNC(=O)c3cnccn3)CC2)c1,,inactive: -12.9%,
CCCNC(=O)C1CC(c2ccccc2F)=NO1 (configuration not stated),,inactive: 3.63%,
Cc1nc(-c2cn(C3CCCN(C(=O)c4cccc(C#N)c4)C3)nn2)no1 (configuration not stated),"inconclusive: 4.47 µM [inhibitor, partial curve]",,
Cc1ccccc1NC(=O)Cn1ccn2nc3c(c2c1=O)CCCCC3,"inconclusive: 12.6 µM [inhibitor, single point]",,
COc1ccc(CN2CC(COc3ccccc3)C3(C2)CN(c2ccccc2)C3)cc1O (configuration not stated),"inconclusive: 1.58 µM [inhibitor, partial curve, poor fit]",,
CN(CC1CCN(CCc2cccc(F)c2)CC1)C(=O)[C@@H](N)Cc1cnc[nH]1,,inactive: -1.24%,
O=C(Nc1ccc2nc(SCC(=O)N3CCOCC3)sc2c1)c1ccccc1Cl,"inconclusive: 12.6 µM [inhibitor, single point]",,
CCn1nccc1C(=O)N1CCCC(n2cc(-c3nc(-c4ccccc4)no3)nn2)C1 (configuration not stated),"inconclusive: 1.58 µM [inhibitor, full curve]",,
COc1cccc(OC)c1CN1CCC2(CC1)CC(O)CCO2 (configuration not stated),"inconclusive: 1.78 µM [inhibitor, full curve]",,
Cc1ccc(NCc2cccn2-c2nnc(N3CCC(C(=O)NCc4ccc(F)cc4)CC3)s2)cc1,"inconclusive: 7.94 µM [inhibitor, single point]",,
CCOc1ccccc1NC(=O)N1CCC2(CC1)CC(Cc1nc(-c3ccncc3)no1)CCO2 (configuration not stated),"inconclusive: 10 µM [inhibitor, partial curve, poor fit]",,
CC(C)c1noc(-c2cn(C3CCCN(C(=O)c4ccc(F)c(Cl)c4)C3)nn2)n1 (configuration not stated),"inconclusive: 2.82 µM [inhibitor, partial curve, poor fit]",,
O=C(CCCc1nc2ccccc2[nH]1)N1CCc2c(nc3cc(-c4ccccc4)[nH]n3c2=O)C1,,inactive: 25% [at 5.79 µM],
O=C(CC1(O)C(=O)N(Cc2ccccc2)c2ccc(Br)cc21)c1ccccc1 (configuration not stated),"inconclusive: 17.8 µM [inhibitor, single point]",,
O=C1CC(c2noc(-c3ccc(Cl)cc3)n2)CN1c1ccc(F)cc1 (configuration not stated),,inactive: 126%,
Cc1ccc(-n2c(-c3ccco3)nc3c(cnn3-c3ccc(C)cc3)c2=O)cc1,active: 11.2 µM,,
O=C(Cc1ccccc1F)N1CCC(c2nc3c(nnn3Cc3cccc(Cl)c3)c(=O)[nH]2)CC1,active: 10 µM,,

SMILES,Potency,"activity, negative = inhibition",outcome
CC(C)CCNC(=O)c1ccc(-c2nnc3ccc(NC(=O)C4CCC4)cn23)cc1,active: 2.82 µM,,
COc1ccc(-c2nnc(C[C@@H]3C[C@@H](C(C)C)[C@H](CO)C=C3C)o2)cc1,active: 10 µM,,
Cn1c(=O)oc2cc(S(=O)(=O)N3CCCC(C(=O)N4CCN(c5cccc(Cl)c5)CC4)C3)ccc21 (configuration not stated),"inconclusive: 11.2 µM [inhibitor, single point]",,
Cc1noc(C)c1S(=O)(=O)N1CCCCC(NC(=O)c2c[nH]c(=O)cn2)C1 (configuration not stated),,inactive: -6.34%,
CC1=C(C(=O)OCC2CCCCC2)C(c2cccc(F)c2F)CC(=O)N1 (configuration not stated),"inconclusive: 17.8 µM [inhibitor, single point]",,
CCOC(=O)c1ccc(NC(=O)c2c(NCc3cc(OC)c(OC)cc3OC)sc3c2CCCC3)cc1,active: 12.6 µM,,
CCCc1cnc2c(c1SCC(=O)Nc1cccc(C)c1C)c(=O)n(C)c(=O)n2C,,inactive: 0.706%,
COc1ccc(-n2cc(-c3ccccc3)c3c(NCCc4ccc(OC)c(OC)c4)ncnc32)cc1,"inconclusive: 11.2 µM [inhibitor, partial curve, poor fit]",,
CCN1CCN(c2cc3c(cc2F)c(=O)c(S(=O)(=O)c2cc(C)cc(C)c2)cn3CC)CC1,"inconclusive: 12.6 µM [inhibitor, single point]",,
Cc1ccc(O[C@H]2COCC[C@H]2NC(=O)Cc2c(F)cccc2Cl)cn1,,inactive: -5.17%,
Fc1ccccc1-c1cnc2n[nH]c(-c3ccccc3)c2n1,,,inactive [at 44.1 µM]
Fc1cc(F)cc(CNc2ncncc2-c2nc(-c3ccccc3)no2)c1,"inconclusive: 0.631 µM [inhibitor, partial curve]",,
O=C(NCCc1nc(-c2cccnc2)no1)c1coc2c1C(=O)CCC2,"inconclusive: 0.398 µM [inhibitor, full curve, poor fit]",,
CC(C)Oc1ccc(C(=O)N2[C@@H]3CC[C@H]2CC(NC(=O)c2ccc(F)cc2)C3)cc1 (some centres not stated),,inactive: -15.9%,
COc1ccc(C2Cn3nnc(-c4nc(-c5ccc(F)c(Br)c5)no4)c3CO2)cc1 (configuration not stated),"inconclusive: 0.316 µM [inhibitor, full curve, poor fit]",,
CCOc1ccc(S(=O)(=O)NCC(c2ccc(N(C)C)cc2)N2CCc3ccccc32)cc1 (configuration not stated),"inconclusive: 2.51 µM [inhibitor, partial curve, poor fit]",,
COc1ccc(-c2cc([C@H]3CN4CC[C@H]3C[C@@H]4CNC(=O)Nc3ccccc3)n(C)n2)cc1,"inconclusive: 3.55 µM [inhibitor, single point]",,
Cc1cccc(N2CCN(c3ncnc4onc(C)c34)CC2C)c1 (configuration not stated),"inconclusive: 8.91 µM [inhibitor, single point]",,
Cn1ncc2c(C(=O)NCCc3ccc(Cl)cc3)cc(-c3ccc([S+](C)(=O)[O-])cc3)nc21,,inactive: -19.4%,
Cc1cnc(C)n1C1CCN(S(=O)(=O)c2ccc(C#N)cc2)CC1,"inconclusive: 17.8 µM [inhibitor, single point]",,
CCC(=O)N1CCc2cc(Br)cc(S(=O)(=O)N(CC)Cc3ccccc3)c21,"inconclusive: 10 µM [inhibitor, single point]",,
